Some targets named below: Neutrophil collagenase (Homo sapiens, UniProt P22894); Collagenase 3 (Homo sapiens, UniProt P45452); Stromelysin-1 (Homo sapiens, UniProt P08254).
The target of the next data set is T1, Interstitial collagenase (Homo sapiens, UniProt P03956).
T1 sequence (P03956 whole entry): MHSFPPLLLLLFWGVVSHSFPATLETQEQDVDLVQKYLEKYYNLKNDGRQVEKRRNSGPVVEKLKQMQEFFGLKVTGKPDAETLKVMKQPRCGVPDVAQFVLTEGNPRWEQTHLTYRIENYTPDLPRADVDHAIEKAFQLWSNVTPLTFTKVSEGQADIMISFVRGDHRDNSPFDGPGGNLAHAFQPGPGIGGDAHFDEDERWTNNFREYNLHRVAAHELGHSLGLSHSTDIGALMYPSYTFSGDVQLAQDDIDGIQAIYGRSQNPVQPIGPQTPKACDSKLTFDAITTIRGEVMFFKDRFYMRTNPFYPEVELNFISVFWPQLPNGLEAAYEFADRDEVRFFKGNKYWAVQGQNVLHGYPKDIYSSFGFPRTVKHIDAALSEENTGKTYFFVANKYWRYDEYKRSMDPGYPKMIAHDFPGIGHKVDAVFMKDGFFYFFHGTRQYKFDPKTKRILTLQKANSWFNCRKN

The target of data set [1] is 72 kDa type IV collagenase (Homo sapiens, UniProt P08253).
Another data set is filed under the species Rattus norvegicus. The note with it: in vivo, po.
A short description of the next data set: in vivo. The note with it: rat, po.

Drawing on ChEMBL document CHEMBL1132007, “The synthesis and biological evaluation of non-peptidic matrix metalloproteinase inhibitors” (Bioorg Med Chem Lett, 1999), this text covers IC50, AUC and Cmax for 22 compounds.

For orientation: IC50 means the point on the concentration scale where inhibition reaches its midpoint. Read a low IC50 as greater potency in that assay. As usually defined, the Cmax is the peak of the concentration-time curve.

On Interstitial collagenase, `CN(C)c1cccc2c(S(=O)(=O)N(C)C[C@H](C(=O)NO)[C@@H](CC3CCCC3)C(=O)N3CCCCC3)cccc12` displayed an IC50 of 2 nM.

As to `CC(C)C[C@@H](C(=O)N(C)C)[C@H](CN(C)S(C)(=O)=O)C(=O)NO`, the midpoint of inhibition against Neutrophil collagenase, the IC50, lay at 4000 nM.

Take `CC(C)C[C@@H](C(=O)N1CCCCC1)[C@H](CN(C)S(=O)(=O)c1cccc2c(N(C)C)cccc12)C(=O)NO`: the figures for the IC50 against Interstitial collagenase and on Neutrophil collagenase were 6 nM and 10 nM, respectively.

As to `CS(=O)(=O)N(C[C@H](C(=O)NO)[C@@H](CC1CCCC1)C(=O)N1CCCCC1)C1CCCC1`, the values for the IC50 at Interstitial collagenase, at Neutrophil collagenase and at Collagenase 3 were 20 nM, 200 nM and 200 nM, respectively.

As to `COc1ccc(S(=O)(=O)N(C)C[C@H](C(=O)NO)[C@@H](CC(C)C)C(=O)N2CCCCC2)cc1`, the results for the half-maximal inhibitory concentration (IC50) against Interstitial collagenase, against Neutrophil collagenase and on Collagenase 3 were 80 nM, 20 nM and 100 nM, respectively.

For the compound `CC(C)N(C[C@H](C(=O)NO)[C@@H](CC1CCCC1)C(=O)N1CCCCC1)S(C)(=O)=O`, the values for the IC50 against Neutrophil collagenase and against Collagenase 3 were 100 nM and 600 nM, respectively.

On to `CN(C[C@H](C(=O)NO)[C@@H](CC1CCCC1)C(=O)N1CCCCC1)S(=O)(=O)C(F)(F)F`, for which the half-maximal inhibitory concentration (IC50) at Neutrophil collagenase worked out at 10 nM; against Collagenase 3, 40 nM.

With `COc1ccc(S(=O)(=O)N(C)C[C@H](C(=O)NO)[C@@H](CC2CCCC2)C(=O)N2CCCCC2)cc1`, the half-maximal inhibitory concentration (IC50) against Interstitial collagenase amounted to 10 nM; at Neutrophil collagenase, 3 nM.

On to `CC(C)C[C@@H](C(=O)N1CCOCC1)[C@H](CN1C(=O)c2ccccc2C1=O)C(=O)NO`, for which the half-maximal inhibitory concentration (IC50) at Stromelysin-1 was found to be 5 µM; in data set [1], 2000 nM; at Collagenase 3, 100 nM.

In the case of `CCCN(C[C@H](C(=O)NO)[C@@H](CC1CCCC1)C(=O)N1CCCCC1)S(C)(=O)=O`, the IC50 at Neutrophil collagenase worked out at 90 nM; on Collagenase 3, 200 nM.

For `COc1ccc(S(=O)(=O)N(C)C[C@H](C(=O)NO)[C@@H](CC2CCCC2)C(=O)N2CCOCC2)cc1`, the 50% inhibitory concentration (IC50) against Neutrophil collagenase came to 3 nM; at Collagenase 3, 20 nM.

Turning to `CN(C[C@H](C(=O)NO)[C@@H](CC1CCCC1)C(=O)N1CCCCC1)S(=O)(=O)c1ccc(Cl)cc1`, the IC50 against Neutrophil collagenase came to 4 nM; against Collagenase 3, 10 nM.

In the case of `CC(C)C[C@@H](C(=O)N1CCCCC1)[C@H](O)C(=O)NO`, in data set [1], the IC50 was determined as 500 nM.

For `CS(=O)(=O)N(C[C@H](C(=O)NO)[C@@H](CC1CCCC1)C(=O)N1CCCCC1)C1CC1`, the midpoint of inhibition on Neutrophil collagenase, the IC50, lay at 40 nM.

Consider `CCS(=O)(=O)N(C)C[C@H](C(=O)NO)[C@@H](CC(C)C)C(=O)N1CCCCC1`, for which the half-maximal inhibitory concentration (IC50) on Interstitial collagenase came to 50 nM; at Neutrophil collagenase, 100 nM.

On to `CN(C[C@H](C(=O)NO)[C@@H](CC1CCCC1)C(=O)N1CCCCC1)S(=O)(=O)c1cccc2ccccc12`, for which the IC50 against Neutrophil collagenase was 4 nM; against Collagenase 3, 8 nM.

`CN(C[C@H](C(=O)NO)[C@@H](CC1CCCC1)C(=O)N1CCOCC1)S(C)(=O)=O` registered an IC50 at Neutrophil collagenase of 20 nM.

The compound `CN(C[C@H](C(=O)NO)[C@@H](CC1CCCC1)C(=O)N1CCCCC1)S(C)(=O)=O` yielded a 50% inhibitory concentration (IC50) against Collagenase 3 of 400 nM.

`CC(C)C[C@@H](C(=O)N1CCCCC1)[C@H](CN(C)S(C)(=O)=O)C(=O)NO` gave a concentration for half-maximal inhibition (IC50) against Neutrophil collagenase of 100 nM. In other words, the sub-micromolar range.

On to `CCS(=O)(=O)N(C)C[C@H](C(=O)NO)[C@@H](CC1CCCC1)C(=O)N1CCCCC1`, for which the 50% inhibitory concentration (IC50) on Interstitial collagenase was 6 nM; at Neutrophil collagenase it was 10 nM; on Collagenase 3 it was 40 nM.

In the case of `CN(C)S(=O)(=O)N(C)C[C@H](C(=O)NO)[C@@H](CC1CCCC1)C(=O)N1CCCCC1`, the values for the IC50 on Interstitial collagenase, against Neutrophil collagenase and on Collagenase 3 were 6 nM, 10 nM and 40 nM, respectively. Also, in the data set listed under Rattus norvegicus, the AUC amounted to 904 ng/mL/h. In addition, the concentration in the data set “in vivo” peaked (Cmax at 6 h) at 47.5 ng/mL.

As to `CC(C)S(=O)(=O)N(C)C[C@H](C(=O)NO)[C@@H](CC1CCCC1)C(=O)N1CCCCC1`, the half-maximal inhibitory concentration (IC50) against Neutrophil collagenase is 9 nM; against Collagenase 3 it was 40 nM.
